Reference: the supplement of paper PMC9446081
The campaign covered roughly 39,000 compounds. About 220 (0.56%) showed activity. The list shows a part of the results.
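Further: static incubation at 37 °C against the wild-type strain, values averaged over two biological replicates.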

The compounds below were run on Escherichia coli K-12 BW25113 (assay: relative growth (OD600 normalised to plate interquartile mean) (fraction); higher = less growth inhibition, active = 0.2 or less). Conditions: 50 µM; LB; incubation time: overnight (16-24 h).
In the case of `Cc1c2occ(C(C)(C)C)c2cc2c3c(c(=O)oc12)CCCC3`, the relative growth is reported as inactive: 1.04.
For `C[C@H](CO)N1C[C@H](C)[C@@H](CN(C)C(=O)NC2CCCCC2)OCCCC[C@H](C)Oc2ccc(NC(=O)c3ccccc3)cc2C1=O`, the relative growth was inactive: 1.01.
With `Cc1ccc(S(=O)(=O)Nc2ccc3c(c2)C(=O)N([C@H](C)CO)C[C@@H](C)[C@H](CN(C)S(=O)(=O)c2ccc(F)cc2)OCCCC[C@@H](C)O3)cc1` the relative growth was inactive: 1.02.
With `C[C@H]1CN([C@@H](C)CO)C(=O)c2cc(C#CC3(O)CCCC3)cnc2O[C@@H]1CN(C)C(=O)Cc1cccnc1` the relative growth was inactive: 0.996.
For `C[C@H]1CN([C@@H](C)CO)C(=O)CCCn2nncc2CO[C@H]1CN(C)C(=O)Nc1ccccc1C(F)(F)F`, the relative growth was inactive: 0.981.
With `CC(C)N1C[C@@H](CN(C)Cc2ccc(Oc3ccccc3)cc2)Oc2c(NC(=O)c3ccncc3)cccc2C1=O` the relative growth was inactive: 1.02.
`N#CCC1CCNCC1` was tested, and the relative growth was inactive: 0.998.
`C[C@H]1CN([C@@H](C)CO)C(=O)c2cccc(NC(=O)C3CCCCC3)c2O[C@H]1CN(C)C(=O)Nc1cccc2ccccc12` was tested, and the relative growth was inactive: 1.
For `CC(C)NC(=O)Nc1ccc2c(c1)CC(=O)N([C@H](C)CO)C[C@H](C)[C@@H](CN(C)Cc1ccc(-c3ccccc3)cc1)O2`, the relative growth was inactive: 1.02.
In the case of `O=C(O)CNc1ncccc1O`, the relative growth is reported as inactive: 1.03.
For `C=CCSCC=C`, the relative growth was inactive: 1.
`C[C@H](CO)N1C[C@H](C)[C@H](CN(C)Cc2ccc(C(=O)O)cc2)Oc2ccc(NC(=O)Nc3cccc4ccccc34)cc2C1=O` was tested, and the relative growth was inactive: 0.987.
`COc1ccc(S(=O)(=O)Nc2cccc3c2O[C@H](CN(C)S(=O)(=O)c2ccc(OC)cc2)[C@@H](C)CN([C@H](C)CO)C3=O)cc1` was tested, and the relative growth was inactive: 0.987.
With `C[C@@H]1CCCCO[C@@H](CN(C)C(=O)Nc2cccc3ccccc23)[C@H](C)CN([C@@H](C)CO)C(=O)c2cc(NC(=O)Nc3ccc(C(F)(F)F)cc3)ccc2O1` the relative growth was inactive: 1.06.
With `C[C@H]1CN([C@@H](C)CO)S(=O)(=O)c2ccc(-c3ccccc3F)cc2O[C@@H]1CN(C)S(C)(=O)=O` the relative growth was inactive: 1.03.
For `C[C@@H]1CN([C@H](C)CO)C(=O)c2cc(NS(=O)(=O)c3ccccc3)ccc2O[C@@H](C)CCCCO[C@H]1CN(C)Cc1ccc(C(=O)O)cc1`, the relative growth was inactive: 1.
For `N=C(N)SC=CC(=O)O`, the relative growth was inactive: 0.967.
For `C[C@@H]1CN([C@H](C)CO)C(=O)c2cc(NC(=O)Nc3ccc(F)cc3)ccc2O[C@@H](C)CCCCO[C@@H]1CN(C)S(=O)(=O)c1ccc(Cl)cc1`, the relative growth was inactive: 1.06.
In the case of `C[C@@H]1CCCCO[C@@H](CN(C)C(=O)CCCN(C)C)[C@H](C)CN([C@@H](C)CO)C(=O)c2cc(N(C)C)ccc2O1`, the relative growth is reported as inactive: 0.989.
In the case of `Cc1ccc(S(=O)(=O)Nc2ccc3c(c2)CC(=O)N([C@@H](C)CO)C[C@@H](C)[C@H](CN(C)S(=O)(=O)c2ccccc2)O3)cc1`, the relative growth is reported as inactive: 0.982.
With `O=C1N[C@@H](Cc2c[nH]c3ccccc23)COC(=O)[C@@H](Cc2ccc(F)cc2)CCC=CC[C@H]1CC(=O)N(CCO)Cc1ccccc1` the relative growth was inactive: 0.993.
`C[C@H]1CN([C@@H](C)CO)C(=O)c2cc(NC(=O)Nc3ccc(C(F)(F)F)cc3)ccc2O[C@H]1CN(C)C(=O)NC1CCCCC1` was tested, and the relative growth was inactive: 1.
With `COCC#Cc1ccc([C@H]2[C@H]3CN(C(=O)C4CCOCC4)CC(=O)N3[C@H]2CO)cc1` the relative growth was inactive: 1.05.
For `CN(C)[C@@H]1C(=O)[C@@H](C(N)=O)C(=O)[C@@]2(O)C(=O)[C@@H]3C(=O)c4c(O)c(NC(=O)CN5CCCC5)cc(F)c4C[C@H]3C[C@@H]12`, the relative growth was active: 0.0357.
For `C=CCN1C(=O)[C@@]2(O[C@@H](CCO)[C@H]([Si](C)(C)c3ccc(OC)cc3)[C@H]2C)c2cc(NC(=O)[C@H](C)O)ccc21`, the relative growth was inactive: 1.03.
For `COc1ccc2c3c(n(c2c1)C)[C@@H](CO)N(C[C@]13CN(Cc2cccnc2)C1)S(=O)(=O)c1ccc(cc1)C`, the relative growth was inactive: 1.01.
With `NCCCC(O)(P(=O)(O)O)P(=O)(O)O.O.O.O.[Na+]` the relative growth was inactive: 1.11.
For `O=C(C[C@H]1CC[C@H]2[C@@H](COC[C@H](O)CN2S(=O)(=O)c2ccc(Cl)cc2)O1)NCCN1CCCCC1`, the relative growth was inactive: 1.04.
In the case of `COc1ccc(S(=O)(=O)N(C)C[C@@H]2OCCCC[C@@H](C)Oc3ccc(NC(=O)Nc4ccc(C(F)(F)F)cc4)cc3C(=O)N([C@@H](C)CO)C[C@H]2C)cc1`, the relative growth is reported as inactive: 0.999.
With `C[C@H](CO)N1C[C@H](C)[C@H](CN(C)Cc2ccccc2)OCCCC[C@H](C)Oc2ccc(NS(=O)(=O)c3ccccc3)cc2C1=O` the relative growth was inactive: 0.997.
`C[C@H](CO)N1C[C@H](C)[C@@H](CN(C)S(=O)(=O)c2ccc(Cl)cc2)Oc2ccc(NC(=O)CCCN(C)C)cc2CC1=O` was tested, and the relative growth was inactive: 0.991.
`CCCCOc1ccc(OCCCN2CCOCC2)cc1.Cl` was tested, and the relative growth was inactive: 1.06.
With `COc1ccc(S(=O)(=O)N(C)C[C@H]2OCCCC[C@@H](C)Oc3ccc(NC(=O)Nc4ccccc4)cc3C(=O)N([C@H](C)CO)C[C@@H]2C)cc1` the relative growth was inactive: 1.01.
In the case of `C[n+]1ccccc1/C=N/O`, the relative growth is reported as inactive: 0.978.
In the case of `COCC(=O)N(C)C[C@@H]1Oc2cc(C#CCC3CCCC3)ccc2S(=O)(=O)N([C@@H](C)CO)C[C@H]1C`, the relative growth is reported as inactive: 1.01.
For `C[C@@H]1CN([C@H](C)CO)C(=O)Cc2cc(NC(=O)Nc3ccccc3)ccc2O[C@H]1CN(C)S(C)(=O)=O`, the relative growth was inactive: 1.01.
In the case of `CCOC(=O)N[C@@H]1CC(=O)N(C2CC2)C1`, the relative growth is reported as inactive: 0.981.
For `CCOC(=O)c1cn[nH]c1`, the relative growth was inactive: 0.994.
In the case of `C[C@H](CO)N1C[C@H](C)[C@H](CN(C)C(=O)Cc2ccccc2)OCCCC[C@H](C)Oc2ccc(NC(=O)C3CCCCC3)cc2C1=O`, the relative growth is reported as inactive: 1.
With `Cc1cccc(Nc2ccccc2C(=O)O)c1C` the relative growth was inactive: 1.01.
With `C[C@H](CO)N1C[C@H](C)[C@@H](CN(C)S(=O)(=O)c2cccs2)OCCCC[C@H](C)Oc2ccc(NC(=O)Cc3ccccc3)cc2C1=O` the relative growth was inactive: 1.03.
